{"source": "the supplement of paper PMC10986608", "note": "This is one part of the list. Single values are uncertain, as repeats are few or missing.", "data": [{"system": "Candida albicans DPL-15", "experiment": "growth (OD600) after compound treatment (apparently relative to screen median) (relative growth (fraction; screen median 1.02)); DPL-15 is a caspofungin-resistant clinical isolate; higher = more fungal growth (less antifungal activity)", "settings": "25 µM; RPMI 1640; 48 h; 30 °C", "values": [{"smiles": "COC[C@@H](O)[C@H]1OCc2c(c3cc(C(F)(F)F)ccc3n2S(=O)(=O)c2ccc(C)cc2)[C@@H]1/C=C/c1ccccc1", "growth": 0.875}, {"smiles": "COC(=O)C1=C(C(=O)OC)[C@@H]2Nc3ccccc3[C@@]23C[C@@H](C(=O)OC)NC3=N1", "growth": 1.14}, {"smiles": "C=CCN1C(=O)c2[nH]nc(C)c2C1c1ccc(Br)cc1", "note": "(stereo not drawn)", "growth": 0.967}, {"smiles": "COc1ccccc1Cn1nc(C)c2c1C(=O)NC2c1ccc(C)cc1", "note": "(stereo not drawn)", "growth": 0.872}, {"smiles": "OC(CN1CCCc2nc(-c3ccc(Br)cc3)ccc21)CN1CCCc2nc(-c3ccc(Br)cc3)ccc21", "growth": 0.935}, {"smiles": "C#CCC(C)(C)CNC(=O)CC(O)CNC(=O)c1cccc(/C=N/NS(=O)(=O)c2ccc(C)cc2)c1", "note": "(stereo not drawn)", "growth": 1.07}, {"smiles": "COC(=O)C1=C(CCl)NC(=O)NC1c1ccccc1", "note": "(stereo not drawn)", "growth": 1.15}, {"smiles": "COC(=O)c1cc(O)c(C(C)(C)C)c(O)c1", "growth": 0.983}, {"smiles": "CC(C)Cn1nccc1Nc1cc(O)cc(O)c1C(=O)N1Cc2ccccc2C1", "growth": 0.99}, {"smiles": "COCOc1c(C)c(O)c(C(=O)OC)c(O)c1C", "growth": 1.02}, {"smiles": "COC(=O)[C@@H]1[C@H](C(=O)OC)[C@@H](c2ccc(OC)cc2)[C@H]1c1ccc(OC)cc1", "growth": 0.892}, {"smiles": "COc1cccc2c(=O)c3cccc(C(=O)NCCCN4CCCCC4C)c3[nH]c12", "note": "(stereo not drawn)", "growth": 1.11}, {"smiles": "CCNC1=NC(c2ccccc2C(F)(F)F)C(C(=O)OC)=C(C)N1C", "note": "(stereo not drawn)", "growth": 1}, {"smiles": "Cc1cc(O)c2c3c4c(cc(O)c13)O[C@H]1OCCC[C@H]1[C@H]4OC2=O", "growth": 0.979}, {"smiles": "O=S(=O)(Nc1ccc(C(F)(F)F)cc1)N1CCOCC1", "growth": 1.26}, {"smiles": "C=CC[C@@H](CC1(CC=C)C(=O)C(C(=O)c2ccccc2)=C(O)C=C1OC)C(=C)C", "note": "(stereo partly drawn)", "growth": 1.07}, {"smiles": "COc1ccc(N2C(=O)c3[nH]nc(CC(C)C)c3C2C2CCCC2)cc1", "note": "(stereo not drawn)", "growth": 1}, {"smiles": "COc1ccc(C(=O)C(OCc2ccccc2)C(=O)c2c(O)cc(OC)cc2OC)cc1", "note": "(stereo not drawn)", "growth": 1.12}, {"smiles": "COc1cc2c3c4c(c(O)cc(C)c14)C(=O)O[C@@H]3[C@@H]1CCO[C@]1(c1ccc([N+](=O)[O-])cc1)O2", "growth": 1.04}, {"smiles": "CC(C)Cc1n[nH]c2c1C(c1ccc(F)cc1)N(C1CCOCC1)C2=O", "note": "(stereo not drawn)", "growth": 0.868}, {"smiles": "c1ccc(CCCc2cccnc2CCCc2ccccc2)cc1", "growth": 1.05}, {"smiles": "C=CCN1C(=O)c2[nH]nc(C)c2C1c1ccc(C)cc1", "note": "(stereo not drawn)", "growth": 0.971}, {"smiles": "CS(=O)(=O)Oc1c(CC23CCCCC2=Nc2cc(F)cc(F)c23)occc1=O", "note": "(stereo not drawn)", "growth": 1.04}, {"smiles": "Clc1cccc(CCCc2ccccc2)n1", "growth": 1.18}, {"smiles": "COCCNC1=NC(c2ccccc2)C(C(=O)OC)=C(C)N1Cc1ccc(C(F)(F)F)cc1", "note": "(stereo not drawn)", "growth": 0.958}, {"smiles": "COC(=O)C1=C(C(=O)OC)[C@@H](c2ccc(OC)cc2)O[C@@H]1c1ccc(Cl)cc1", "growth": 1.37}, {"smiles": "COCOc1ccccc1C(=O)/C=C/c1ccccc1", "growth": 1.09}, {"smiles": "CC(C)CC1=NCCNC2=C1C(c1ccccc1)N(c1ccccc1)C2=O", "note": "(stereo not drawn)", "growth": 0.879}, {"smiles": "COc1ccc(Cn2nc(C)cc2Nc2cc(O)cc(O)c2C(=O)N2Cc3ccc(N4CCN(C)CC4)cc3C2)cc1", "growth": 1.07}, {"smiles": "COc1ccc(N2C(=O)C3=C(C(C)=NCC(C)(C)N3)C2c2ccc(Br)cc2)cc1", "note": "(stereo not drawn)", "growth": 1.03}, {"smiles": "COC(=O)C1=C(C)N(C)C(NCC(C)C)=NC1c1ccc(Cl)cc1", "note": "(stereo not drawn)", "growth": 1.06}, {"smiles": "C=CCN1C(=O)C2=C(C(c3ccccc3)=NCC(C)(C)N2)C1c1ccc(F)cc1", "note": "(stereo not drawn)", "growth": 1.07}, {"smiles": "COc1ccc(Cn2nc(C)cc2Nc2cc(O)cc(O)c2C(=O)N2Cc3cn[nH]c3C2)cc1", "growth": 1.19}, {"smiles": "CC1=NCCN(C)C2=C1C(c1cccc(C(F)(F)F)c1)NC2=O", "note": "(stereo not drawn)", "growth": 0.98}, {"smiles": "CC(C)N1CCC[C@@H](CN(C)Cc2ccccc2)C1", "growth": 1.05}, {"smiles": "COc1cc(OC)c2c(c1)O[C@@]1(c3ccc(Br)cc3)[C@H](c3ccccc3)[C@@H](C(=O)N(C)OC)[C@@H](O)[C@@]21O", "growth": 0.826}, {"smiles": "C=CCc1cc(OC)c(OC)cc1C(c1ccccc1)c1ccccc1O", "note": "(stereo not drawn)", "growth": 1.12}, {"smiles": "CC(C)n1nccc1Nc1cc(O)cc(O)c1C(=O)N1Cc2ccccc2C1", "growth": 1.09}, {"smiles": "COc1ccc([C@@]23Oc4cc(OC)cc(OC)c4[C@]2(O)[C@H](O)[C@H](C(=O)c2oc4ccccc4c2C)[C@H]3c2ccccc2)cc1", "growth": 1.03}, {"smiles": "COCCN1C(=O)N[C@@H](c2cccc(F)c2)C(C(C)=O)=C1C", "growth": 0.967}, {"smiles": "C#CCOC[C@@H](NC(=O)CC1(CNC(=O)OCC2c3ccccc3-c3ccccc32)CCCCC1)c1ccccc1", "growth": 1.2}, {"smiles": "COC(=O)N[C@@H](c1cccc(C)c1)C(C(C)=O)C(=O)OC", "note": "(stereo partly drawn)", "growth": 1.06}, {"smiles": "COc1ccc(Cn2nc(-c3ccccc3)cc2Nc2cc(O)cc(O)c2C(=O)N(C)Cc2cccnc2)cc1", "growth": 1.02}, {"smiles": "CC(C)Cc1n[nH]c2c1C(c1cccc(C(F)(F)F)c1)N(c1ccc(Br)cc1)C2=O", "note": "(stereo not drawn)", "growth": 0.985}, {"smiles": "CCOC(=S)SCCCOS(=O)(=O)NC(C)(C)C", "growth": 1.05}, {"smiles": "C=C1CC[C@H]2[C@@H](C(=O)C(C)C)C3=C(O[C@]2(C)CC[C@@H]2[C@@H]1CC2(C)C)C(C)(C)C(=O)C(C)(C)C3=O", "growth": 0.994}, {"smiles": "COc1c(F)cc(C2NC(=O)N3CCC=CC3=C2C(C)=O)c(C)c1Cl", "note": "(stereo not drawn)", "growth": 0.885}, {"smiles": "Cc1nn(Cc2ccccc2)c2c1C(c1ccccc1)NC2=O", "note": "(stereo not drawn)", "growth": 1}, {"smiles": "CC(C)(C)n1nc(-c2ccccc2)cc1N", "growth": 1.16}, {"smiles": "COc1ccc(C(=O)Nc2ccc(CCN3CCc4cc(OC)c(OC)cc4C3)cc2)c(NC(=O)c2cnc3ccccc3c2)c1", "growth": 1.71}, {"smiles": "COc1cc2c(c(OC)c1OC)CC(C)=C(C)CC2NC(=O)C(F)(F)F", "note": "(stereo not drawn)", "growth": 1.15}, {"smiles": "Nc1c(-c2ccc(F)cc2)cnc2c(-c3ccc(F)cc3)cnn12", "growth": 1.35}, {"smiles": "COc1cc(OC)c2c(=O)c3c(C[C@H]4[C@H](c5cc(OC)c(O)c6oc7cc(OC)cc(OC)c7c(=O)c56)C=C(C)CC4(C)C)cc(OC)c(O)c3oc2c1", "growth": 0.969}, {"smiles": "COC(=O)c1cc2c(c3c4cc(F)ccc4n(S(=O)(=O)c4ccc(C)cc4)c13)C(=O)N(Cc1ccc(C)cc1)C2", "growth": 0.992}, {"smiles": "CC1=C(C)CC2(C(=O)C(C)(C)C(=O)C(C)(C)C2=O)[C@H](C(=O)C(C)C)C1", "growth": 0.981}, {"smiles": "O=C(O)Cn1nnc(-c2ccc(CO)cc2)n1", "growth": 1.25}, {"smiles": "Cc1ccc(C2C3=C(C(=O)N2c2ccccc2)N(C)CCN=C3C(C)C)cc1", "note": "(stereo not drawn)", "growth": 1.03}, {"smiles": "CC(C)[C@H]1CC[C@H](C)C[C@@H]1OS(=O)(=O)NCC(F)(F)F", "growth": 1.11}, {"smiles": "COc1ccc(N2C(=O)c3c(c(-c4ccccc4)nn3C)C2c2ccccc2)cc1", "note": "(stereo not drawn)", "growth": 0.945}, {"smiles": "Cc1c(C)c(C(=O)O)c(O)c(C)c1O", "growth": 1.31}, {"smiles": "C[C@H]1/C=C/CC(=O)N[C@H](c2ccc(C(F)(F)F)cc2)CC(=O)N[C@@H](Cc2c[nH]c3ccccc23)C(=O)N[C@H]1c1ccccc1", "growth": 1.06}, {"smiles": "COC(=O)C1=C(C)N(CC#Cc2cc(C)cc(C)c2)C(=O)NC1c1ccccc1", "note": "(stereo not drawn)", "growth": 1.12}, {"smiles": "COC(=O)C#CCCCNC(=O)OC(C)(C)C", "growth": 1.09}, {"smiles": "CC(C)CC1=NCCN(C)C2=C1C(c1ccc(Br)cc1)N(Cc1ccccc1)C2=O", "note": "(stereo not drawn)", "growth": 0.942}, {"smiles": "CC(C)C1=NCCN(C)C2=C1C(c1cccc(C(F)(F)F)c1)NC2=O", "note": "(stereo not drawn)", "growth": 0.923}, {"smiles": "COc1cc(OC)c2c(c1)O[C@@]1(c3ccc(Br)cc3)[C@H](c3ccccc3)[C@@H](CN(C)C)[C@@H](O)[C@@]21O", "growth": 1.01}, {"smiles": "C[C@@H]1NC(=O)C[C@@H]2C[C@H](C)[C@H](c3ccccc3)N2C1=O", "growth": 1.43}, {"smiles": "N#Cc1ccc(NS(=O)(=O)N2CCOCC2)cc1", "growth": 1.04}, {"smiles": "CC(C)C1=NCC(C)(C)NC2=C1C(c1ccccc1)N(c1ccccc1)C2=O", "note": "(stereo not drawn)", "growth": 1.01}, {"smiles": "C=CCn1nc2c(c1CC(C)C)C(c1ccc(F)cc1)N(c1ccc(OC)cc1)C2=O", "note": "(stereo not drawn)", "growth": 0.893}, {"smiles": "Cc1c(C(=O)N2CCOCC2)cc2nc(=O)n(-c3ccc(F)cc3)c-2cc1-c1ccccc1", "growth": 1.04}, {"smiles": "COc1cccc(C2CC(c3ccccc3)=CC2=O)c1", "note": "(stereo not drawn)", "growth": 1.06}, {"smiles": "COC(=O)[C@@]12Oc3ccc(-c4cc(F)ccc4C#N)c(O)c3C(=O)C1=C(N)C[C@H](C)[C@H]2O", "growth": 1.28}, {"smiles": "COC(=O)C1=C(C)N(Cc2ccccc2)C(=S)NC1c1cccc(F)c1", "note": "(stereo not drawn)", "growth": 0.957}, {"smiles": "C[C@H]1C[C@H]2CC(=O)N3CCC[C@H]3C(=O)N2[C@H]1c1ccccc1", "growth": 1.06}, {"smiles": "COc1ccc([C@H]2c3cc4c(cc3C[C@@H](C)[C@@H]2CO)OCO4)cc1OC", "growth": 1.07}, {"smiles": "c1ccc(CCCc2cccc(CCCc3ccccc3)n2)cc1", "growth": 1.06}, {"smiles": "C=C(C)[C@]1(O)C[C@@H](C)[C@]2(O)[C@@H]3CCC4(OCCO4)[C@@]34CC(C)=C[C@@]2(O4)C1=O", "growth": 1.05}, {"smiles": "COc1ccc2c(c1)C[C@@H](C)O[C@]21C(=O)Nc2ccccc21", "growth": 1.02}, {"smiles": "CC(=O)C1=C(C)N(Cc2ccc(Cl)cc2)C(=S)NC1c1ccc(F)cc1", "note": "(stereo not drawn)", "growth": 0.87}, {"smiles": "COC(=O)/C=C/c1cc(OC)c(OC)c(OC)c1", "growth": 1.17}, {"smiles": "c1ccc(CCN2CCCC(CNCc3ccccc3)C2)cc1", "note": "(stereo not drawn)", "growth": 1.02}, {"smiles": "COC(=O)C/C=C/[C@H](C)[C@H](NC(=O)C(F)(F)F)c1ccc([N+](=O)[O-])cc1", "growth": 0.915}]}]}
